Patent publication US11285169B2, “Methods for modulating chemotherapeutic cytotoxicity” (The United States of America, as represented by the …, priority 2013, dated 2022)
Structures can show the parent of a compound that is named as a salt. Where two headings read alike, the source gives them in different places.

Legend:
[1] = tested on: CD47 deficient (CD47 KO) Jurkat T cells; conditions: for Δ Maximal Response CD47KO-WT: difference CD47 KO minus WT Jurkat cells; for AC50: read-out: AC50 (μM) CD47 KO, cell viability
WT Jurkat cells = conditions: for AC50: read-out: AC50 (μM) WT
[2] = CD47 KO Jurkat T cells, 48 hours, 10^-9 to 10^-4 M, CellTiter-Glo
[3] = WT Jurkat cells, 48 hours, 10^-9 to 10^-4 M, CellTiter-Glo
[4] = CD47 KO Jurkat T cells, 48 hours

Compound	Maximal Response CD47 KO (RLU) [1, 2]	Δ Maximal Response CD47KO-WT ([1]; 48 hours)	Maximal Response WT (RLU) (WT Jurkat cells; [3])	other results
CCOC(=O)[C@@H](N)CCC(=O)N[C@@H](CSCc1ccccc1)C(=O)N[C@@H](C(=O)OCC)c1ccccc1 [Ezatiostat]	113.889 RLU	45.482	68.407 RLU	
Oc1ccc(C2CNCCc3c2cc(O)c(O)c3Cl)cc1 (centres unmarked) [Fenoldopam]	93.129 RLU		61.271 RLU	
CN1CC[C@H](c2c(O)cc(O)c3c(=O)cc(-c4ccccc4Cl)oc23)[C@H](O)C1 [Flavopiridol???]	37.554 RLU	35.068	2.486 RLU	
Nc1nc(F)nc2c1ncn2[C@@H]1O[C@H](COP(=O)(O)O)[C@@H](O)[C@@H]1O [Fludarabine phosphate]				Maximal Response CD47 KO (RLU) [1]: 46.884 RLU; Maximal Response WT (RLU) (WT Jurkat cells): 12.348 RLU
CC1(C)O[C@@H]2C[C@H]3[C@@H]4C[C@H](F)C5=CC(=O)C=C[C@]5(C)[C@@]4(F)[C@@H](O)C[C@]3(C)[C@]2(C(=O)CO)O1 [Fluocinolone acetonide]	57.23 RLU		25.744 RLU	
CCOC(=O)Nc1ccc(NCc2ccc(F)cc2)nc1N [Flupirtine maleate]	69.164 RLU		44.09 RLU	
COCCCC/C(=N\OCCN)c1ccc(C(F)(F)F)cc1 [Fluvoxamine maleate]	34.845 RLU		0.209 RLU	
CC(C)NC[C@@H](C(=O)N1CCN(c2ncnc3c2[C@H](C)C[C@H]3O)CC1)c1ccc(Cl)cc1 [GDC-0068]	31.005 RLU		2.029 RLU	
CC(C)(O)c1cc2nc(-c3cnc(N)nc3)nc(N3CCOCC3)c2s1 [GNE-493]	47.021 RLU	28.953	18.068 RLU	
Cc1c(Cn2c(C)nc3c(C(=O)O)cc(N4CCOCC4)cc32)cccc1C(F)(F)F [GSK-2636771]	51.53 RLU		26.827 RLU	
CCC(=O)NC[C@H](Cc1ccc(OCCc2nc(-c3ccccc3)oc2C)cc1)N/C(C)=C\C(=O)c1ccc(C(F)(F)F)cc1 [GW-6471]	36.938 RLU	30.614	6.324 RLU	
CC(C)(Sc1ccc(CCN(CCCCC2CCCCC2)C(=O)NC2CCCCC2)cc1)C(=O)O [GW-7647]	50.573 RLU	45.666	4.907 RLU	
Cc1cc(SCc2sc(-c3ccc(C(F)(F)F)cc3)nc2C)ccc1OCC(=O)O [GW-501516]	97.955 RLU	22.007	75.948 RLU	
Cc1ccc(CN2CCNCC2)cc1NC(=O)CNc1ccc(F)c(F)c1 [GW-791343]	37.839 RLU	34.461	3.378 RLU	
Nc1nc(O)c2ncn(COC(CO)CO)c2n1 [Ganciclovir]	69.097 RLU		6.562 RLU	
Oc1cc(O)c(Cl)cn1 [Gimeracil]	106.453 RLU		83.034 RLU	
Cc1cncc2cccc(S(=O)(=O)N3CCCN(C(=O)CN)C[C@@H]3C)c12 [Glycyl-H-1152]	99.473 RLU		62.229 RLU	
CN(C)CCCN=c1c2ccccc2n(C)c2[nH]c(=O)n(C)c(=O)c12 [HLI-373989]	27.558 RLU	26.028	1.53 RLU	
NS(=O)(=O)c1cc2c(cc1Cl)NCNS2(=O)=O [Hydrochlorothiazide]	42.166 RLU		15.923 RLU	
CCN(CCO)CCCC(C)Nc1ccnc2cc(Cl)ccc12 (centres unmarked) [Hydroxychloroquine sulfate]	112.507 RLU		88.656 RLU	
NC(=O)NO [Hydroxyurea]	47.712 RLU		5.365 RLU	
CCNC(=O)C[C@@H]1N=C(c2ccc(Cl)cc2)c2cc(OC)ccc2-n2c(C)nnc21 [I-BET762]	41.586 RLU		9.858 RLU	
Cc1ccccc1-n1c(Cn2cnc3c(N)ncnc32)nc2cccc(C)c2c1=O [IC-87114]	35.263 RLU	31.25	4.013 RLU	
CCN(c1ccccc1)c1cc(NC)[n+](C)c(C)n1.[Cl-] [ICI-D7288]	27.963 RLU	22.445	5.518 RLU	
O=C(O)CNC(=O)c1c(O)c2ccccc2n(Cc2ccccc2)c1=O [IOX2]	113.814 RLU	24.439	89.375 RLU	

Compound	Maximal Response CD47 KO (RLU) [1, 2]	Δ Maximal Response CD47KO-WT ([1]; 48 hours)	Maximal Response WT (RLU) (WT Jurkat cells; [3])	other results
CCCCCN(C)CCC(O)(P(=O)(O)O)P(=O)(O)O [Ibandronate sodium hydrate]	127.096 RLU		103.48 RLU	
O=c1[nH]c(=O)n([C@H]2C[C@H](O)[C@@H](CO)O2)cc1I [Idoxuridine]	101.516 RLU		79.933 RLU	
CC(C)Cn1cnc2c(N)nc3ccccc3c21 [Imiquimod]	72.849 RLU		50.894 RLU	
O=C(Nc1ccncc1)C(=O)c1cn(Cc2ccc(Cl)cc2)c2ccccc12 [Indibulin]	48.851 RLU		21.582 RLU	
CC(C)NCC(O)c1ccc(O)c(O)c1 (centres unmarked) [Isoprenaline hydrochloride]	53.781 RLU		7.997 RLU	
CCOc1ccc(Nc2nc(-c3c(C)nc4ccccn34)cs2)cc1 [JK 184]	39.212 RLU	25.61	13.602 RLU	
Nc1nc(Nc2ccc(S(N)(=O)=O)cc2)nn1C(=O)c1c(F)cccc1F [JNJ-7706621]	44.022 RLU		4.83 RLU	
CCNC(=O)Nc1ccc(Oc2ncnc(N)c2/C=N/OC)cc1Cl [JNJ-38158471]	64.339 RLU	35.985	28.354 RLU	
COc1cc(Oc2ccnc3cc(OC)c(OC)cc23)ccc1NC(=O)NC(C)c1nccs1 (centres unmarked) [KI-20227]	42.569 RLU	30.426	12.143 RLU	
N[C@@H](Cc1ccc(O)c(O)c1)C(=O)O [Levodopa]	77.71 RLU		43.316 RLU	
CCC[C@H](Nc1nc(-c2ccc(NC(=O)NCC)c(OC)c2)ncc1C)c1cccnc1 [Lexibulin hydrochloride]	46.894 RLU		13.896 RLU	
CC1(C)Cc2c(-c3ccccc3)c(-c3ccc(Cl)cc3)c(CC(=O)O)n2C1 [Licofelone]	32.374 RLU		9.166 RLU	
CC1(C)O[C@H]2CC(=O)OC[C@]23[C@H]2CC[C@@]4(C)[C@H](c5ccoc5)OC(=O)[C@H]5O[C@]54[C@]2(C)C(=O)C[C@@H]13 [Limonin]	137.297 RLU		106.306 RLU	
CS(=O)(=O)Oc1ccc2c(NC(N)=O)c(C(=O)c3ccc(Cl)cc3Cl)oc2c1 [Lirimilast]	87.201 RLU		61.864 RLU	
Cc1ccc(NC(=O)C2(c3ccc4c(c3)OC(F)(F)O4)CC2)nc1-c1cccc(C(=O)O)c1 [Lumacaftor]	34.976 RLU		4.41 RLU	
CN(C)c1ccc(C(=O)NCCCCCCC(=O)NO)cc1 [M344]				Δ LogAC50 CD47KO-WT ([1]; log AC50 difference CD47 KO minus WT): 0.5; AC50 [1, 4]: 0.526 µM; AC50 (WT Jurkat cells; WT Jurkat cells, cell viability, 48 hours): 0.166 µM
CC(C)c1ccc2c(c1)c(SC(C)(C)C)c(CC(C)(C)C(=O)O)n2Cc1ccc(Cl)cc1 [MK-886]	40.805 RLU	27.048	13.757 RLU	
C=CCn1c(=O)c2cnc(Nc3ccc(N4CCN(C)CC4)cc3)nc2n1-c1cccc(C(C)(C)O)n1 [MK-1775]	36.376 RLU	21.448	14.928 RLU	
NC1(c2ccc(-c3nc4ccn5c(=O)[nH]nc5c4cc3-c3ccccc3)cc2)CCC1 [MK-2206]	30.241 RLU		1.791 RLU	
O=C(O)[C@]1(Cc2cccc(Nc3nccs3)n2)CC[C@@H](Oc2cccc(Cl)c2F)CC1 [MK-5108]	85 RLU	34.146	50.854 RLU	
CC(C)OC(=O)C(C(=O)OC(C)C)=C1SC=CS1 [Malotilate]	81.666 RLU		32.716 RLU	
C[C@H](Cc1ccc(O)c(O)c1)[C@@H](C)Cc1ccc(O)c(O)c1 [Masoprocol]	31.706 RLU		3.946 RLU	
C=C1c2cccc(O)c2C(=O)C2=C(O)[C@]3(O)C(=O)C(C(N)=O)=C(O)[C@@H](N(C)C)[C@@H]3[C@@H](O)[C@H]12 [Methacycline hydrochloride]	46.269 RLU		18.154 RLU	
CN(Cc1cnc2nc(N)nc(N)c2n1)c1ccc(C(=O)N[C@@H](CCC(=O)O)C(=O)O)cc1 [Methotrexate]	54.169 RLU		9.002 RLU	
CN(C)c1ccc(C(=C2C=CC(=[N+](C)C)C=C2)c2ccc(N(C)C)cc2)cc1.[Cl-] [Methylrosaniline chloride]				Δ LogAC50 CD47KO-WT [1]: 0.75; AC50 [1, 4]: 1.32 µM; AC50 (WT Jurkat cells): 0.235 µM
